± gives the standard deviation of the averaged measurements. The list shows a part of the results.
system: PfAP2-EXP AP2 domain (GST-tagged); assay: gcPBM binding intensity (ln(normalized median fluorescence intensity)); higher = stronger DNA binding
How it was run: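 For binding intensity, the highest Masliner-normalised natural-log median intensity across replicate spots of either probe orientation was taken. Protein bound to the array was stained with Alexa488 anti-GST antibody and scanned at 488 nm. The protein, GST-tagged P. falciparum DNA-binding domains from E. coli at about 25 μg on average, had been applied for 1 h to an Agilent 4 × 180k array of primer-extended double-stranded 36-bp intergenic genomic probes and negative controls.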

Sequence | gcPBM binding intensity (ln)
ATACCTAAAAAATATACACACATATTTATAAATATA [CACACA_site7260] | 8.4 ± 0.4
TAGAATAAACCAAGAAGTACTGTTTAATGAAAAGTA [XGTACX_site5712] | 8.62 ± 0.47
TAAACAGACATATAAACACACATATAAACCGACATA [CACACA_site2478] | 8.69 ± 0.57
TATATTTATATTCTTACATTTTTTATGTTTTTTTTT [CACACA_negctrl_site1017] | 8.39 ± 0.3
AAAATAACATAAAAGAGTACTAAACCAAGATCAAAT [XGTACX_site7973] | 8.97 ± 0.59
GTCATATTATTCTTTTCACACACGCGTTAATAATAA [CACACA_site9302] | 9.41 ± 0.47
TATTATAATATGTAGCGTACATTTTTTCTTTCTTTT [XGTACX_site7831] | 8.94 ± 0.12
AAGGTTATATAAAAAAGTACGCATAAGATGTTGTTC [XGTACX_site807] | 8.73 ± 0.3
TACTGTATTATAATTATGATTGACGAAATTAAAAAT [GTGCAC_negctrl_site358] | 8.44 ± 0.32
TGAAATTTATAATAGTGTACAAAGAAAAAAAAAAAA [XGTACX_site4965] | 8.61 ± 0.52
ATTAGAAAAAAGATAGCACACACGGCCCAATATATA [CACACA_site2417] | 8.73 ± 0.54
TTTATGGATGTGTATGCATGCCTAAATAAATATATG [TGCATGCA_site916] | 9.01 ± 0.48
TCTCAAAAAAAAAAAAAAAAAAAAAAATTAAAAAAT [CACACA_negctrl_site1120] | 7.92 ± 0.68
TAAATAATGTAAAAAACATCATCAAAATGTTAATTA [CACACA_negctrl_site1768] | 7.99 ± 0.4
ACGACATATGGATGATGTACTATCTTTATTATACAT [XGTACX_site6857] | 8.61 ± 0.4
ATAAAGGTTTTCCAAGCATGCCACATAGTGACATAC [TGCATGCA_site193] | 8.39 ± 0.34
CAATATAAAATAAAATGTACTTGTAGTAAAGGGATA [XGTACX_site1452] | 8.79 ± 0.35
GATGAGGACAAACACACACACATAAGTTGATACATA [CACACA_site3424] | 8.69 ± 0.4
AGATAGATACATACACGTACATATATATATACACAT [XGTACX_site4755] | 8.68 ± 0.33

Sequence | gcPBM binding intensity (ln)
TTAGATAGATTTGTACGTACTTATTATAACGTATCA [XGTACX_site5067] | 8.53 ± 0.13
AATTTATAAATAATTAATTTGATAAATTATAAAGGG [GTGCAC_negctrl_site544] | 8.57 ± 0.37
ACATATTTATATGTCTGTACAAATATGCAATTTTTT [XGTACX_site5516] | 8.27 ± 0.31
AAAAAAATTAAATGGGGTACAATAAGGGTCAAATAT [XGTACX_site8669] | 9.08 ± 0.52
GGATAATCATACGAAGCATGCTGAATTTCCAAATAA [TGCATGCA_site1013] | 8.7 ± 0.47
AAAAAAAAAAATGGCTGTACATAATATTTAAATAGG [XGTACX_site4286] | 8.86 ± 0.43
TTTTATTATATATATTGTACATATATTTTTATTTTT [XGTACX_site1564] | 8.62 ± 0.33
AAAAAAAAAAAAAACACACATACATACATACATATA [CACACA_site4121] | 8.55 ± 0.16
ATATTTATAACTTGGTGTACTTTGAAAAAAAAAAAA [XGTACX_site5194] | 8.38 ± 0.26
TTATATTAGCCGATGGTGCATATATTTATAGGAAAA [GTGCAC_site9518] | 8.63 ± 0.2
ATAATTTTTTAGATCACACATATAAATAAATAAATA [CACACA_site5175] | 8.3 ± 0.39
TAATAAATGACAAATTAACACACATATATTATATAT [CACACA_site9294] | 8.39 ± 0.59
CGCTCTCTTTAATATTGTACATATATATTATATATA [XGTACX_site7017] | 8.77 ± 0.35
TACAAAAATATATAAACACACAAATATAATATATAT [CACACA_site2942] | 8.64 ± 0.38
ATAAATCAAATGCACACACACAAAAAAAAAAAAAAA [CACACA_site6221] | 8.67 ± 0.21
TATATATAATATTTTTCACACACCATTTCCTTAAAC [CACACA_site1341] | 8.52 ± 0.42
TGTATCTATAATAAAACACACATTTTTAATGTGCTC [CACACA_site6788] | 8.14 ± 0.3
TTTTTTTTTTTTTTTTGTACATAATAAATGTTCTTA [XGTACX_site6754] | 8.21 ± 0.54
ATAGATATAACATATGCATGTAAAATATAACCACTC [TGCATGCA_site60] | 8.98 ± 0.042

Sequence | gcPBM binding intensity (ln)
AATATATGTATATCCACACACATATATATATATATA [CACACA_site1633] | 10 ± 0.41
TATTTTGTATTCATTTGTCACATATAATAGATAGGA [TGCATGCA_negctrl_site9] | 8.69 ± 0.32
TGTGCGGAAATAAGTGCACACATAGATATATGTATT [CACACA_site9227] | 8.87 ± 0.28
AATAAATAGAAAGAGGTGCTACATTATATTATTTAT | 8.49 ± 0.25
TTATACGAAGTACGTACACACACTTATATGTTACTA [CACACA_site4019] | 8.81 ± 0.32
TATTTAGAAATAAATACACACATACATTTTTGTATA [CACACA_site4557] | 8 ± 0.4
GTTTATTTTTTCATTTGTACACATAAATAAATATAT [XGTACX_site7752] | 8.93 ± 0.27
TTAATTATATTATGCACACACAATTGGAAAAAAAAT [CACACA_site1958] | 8.78 ± 0.19
GGTATATATTCTATCACACATATTTCCATGAAAATA [CACACA_site4728] | 8.57 ± 0.014
TCAACTTGATTTATATGTACACATATAAGTAATTAT [XGTACX_site1798] | 8.43 ± 0.33
AAAAATATGCTTCCATGTACTTAAAAAAAAAATTTA [XGTACX_site3617] | 8.21 ± 0.34
ACGTTAGGCTTATTTGCACACTTGTATTAAAATTTT [CACACA_site4854] | 9.11 ± 0.4
AAAAAAAATTTTCTTCTGTTGTATTTTTTATACGTT [GTGCAC_negctrl_site477] | 8.78 ± 0.42
TATACAAACTATGATGCACACATATATATATGTATA [CACACA_site8327] | 8.58 ± 0.26
AAAAAAAAGAAAAAAACACACAATGGAAAAAATGTA [CACACA_site3675] | 8.76 ± 0.74
AAAAAAAAAAAAAAAAGTACACATAATTGTATATGT [XGTACX_site6339] | 8.44 ± 0.21
TTACATATATTGGGGTGTACATATATTTTCCTTCAC [XGTACX_site6224] | 9.12 ± 0.56
AAATCATATTCTTATTTTATTTTTTTTATTTTTTAT [XGTACX_negctrl_site166] | 8.44 ± 0.32
